From US7335484B2, “Retinoid metabolizing protein” (Queen's University at Kingston, priority 1996, dated 2008)

Experiments:
[1] = test system: P450RAI message in MCF7 cells; assay: Inhibition of P450RAI induction by 4-HPR, northern blot in MCF7 cells; type: cell-based, human; conditions: 12 hours
Method: Experiments to determine the effect of 4-HPR on the induction of P450RAI were thus carried out. FIG. 17 illustrates the ability of the synthetic retinoid, 4-HPR to inhibit the induction of P450RAI by RA. MCF7 cells were grown in culture in minimal essential medium (MEM) (Gibco) supplemented with 10% fetal calf serum, insulin (0.01 mg/mL), MEM non-essential amino acids (as directed by the manufacturer—Gibco), sodium pyruvate (500 nM), L-glutamine (2 mM) gentamycin (10 μg/mL), penicillin (5 μg/mL), streptomycin (5 μg/mL), and fungizone (200 ng/mL). MCF7 cells cultured in parallel were treated for 12 hours with: 10 μM 4HPR; 1 μM 4HPR; 1 μM RA; 1 μM RA and 10 μM 4-HPR; or 1 μM RA and 1 μM 4-HPR. At the end of the 12 hour treatment, total RNA was extracted from the cells using TRIzol reagent (as outlined by the manufacturer—Gibco). P450RAI message in the total RNA preparations was analyzed by northern blot hybridization. The blot was reprobed with a probe corresponding to the GAPDH cDNA to control for equivalent loading of RNA in each lane of the blot.

NB4 cells = conditions: cited from earlier work
zP450RAI transcripts = assay: Northern blot of zP450RAI transcripts in regenerating fin tissue of RA-treated fish; type: in vivo, Danio rerio; conditions: fish exposed to 10^−6 M RA in tank water for 24 hours
Method: D. rerio were kept at 28.5° C. in 40 L tanks with 25-30 fish per tank on a 14 hour light-10 hour dark cycle. Tap water was conditioned by the addition of 10 ml of Water Conditioner (Sera Aqutan) and 10 ml of 250 g/L Aquarium Salt (Nutra Fin) per 20 L. 2-3 L of water was changed daily. Amputation of fins was carried out following anaesthetization of the fish in a solution of 0.2% ethyl-m-aminobenzoate methanesulfonic acid (ICN) in conditioned water. Retinoic acid treatment was performed by adding all-trans RA, to a final concentration of 10^−6 M, directly into the tank water two days following amputation. Both control- and RA-treated fish were kept in the dark during the experiments.
Fish were allowed to regenerate their caudal fins for 72 hours. At 48 hours 10^−6M all-trans RA in DMSO vehicle or DMSO alone was added directly to the tank water. mRNA was prepared using the Micro Fast-Track mRNA isolation kit (Invitrogen, Calif.) according to the manufacturer's directions. 3.0-5.0 μg poly A^+ RNA was electrophoresed, blotted and probed using a previously described method [White, 1994] with the full length zP450RAI cDNA obtained as described below. […] See lanes 2 and 3 of FIG. 3(a).

mP450RAI promoter = mP450RAI promoter luciferase reporter in HepG2 cells; type: cell-based, mouse; conditions: 10^−6 M RA, cotransfected RXRα and RARγ, both orientations of the promoter
hP450RAI = biological target: T1, hP450RAI (Homo sapiens, UniProt O43174, E104D/H105D/L421A/M420S); assay: Metabolism of RA by hP450RAI transfected COS-1 cells; type: in vitro ADME; conditions: COS-1 cells transfected with hP450RAI-pSG5, [11,12-3H]all-trans retinoic acid
T1 construct: expressed in transfected cells; host or cells: COS-1, DEAE-dextran transient transfection with hP450RAI-pSG5, together with pE-AR and pE-ADX
T1 sequence (O43174 1-497 E104D/H105D/M420S/L421A): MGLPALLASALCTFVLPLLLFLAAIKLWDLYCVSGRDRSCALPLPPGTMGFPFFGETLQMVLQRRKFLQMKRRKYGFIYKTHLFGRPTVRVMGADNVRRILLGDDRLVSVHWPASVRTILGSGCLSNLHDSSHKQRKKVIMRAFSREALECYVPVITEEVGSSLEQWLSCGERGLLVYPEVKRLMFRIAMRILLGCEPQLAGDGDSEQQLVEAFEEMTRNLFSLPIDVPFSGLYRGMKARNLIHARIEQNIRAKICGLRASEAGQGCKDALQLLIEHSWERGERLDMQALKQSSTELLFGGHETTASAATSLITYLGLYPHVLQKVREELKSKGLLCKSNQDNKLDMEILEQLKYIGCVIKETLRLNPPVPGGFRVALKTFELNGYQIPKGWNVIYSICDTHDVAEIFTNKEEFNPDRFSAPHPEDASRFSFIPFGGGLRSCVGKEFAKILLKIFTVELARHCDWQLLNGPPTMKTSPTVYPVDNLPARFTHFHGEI
Method: COS-1 cells were subcultured 20 hours prior to transfection which was carried out according to the standard DEAE-dextran method [Sambrook, 1989; Maniatis, 1982]. Cells were transfected with pE-AR (adrenodoxin expression vector, 1 μg/P100 plate) and pE-ADX (adrenodoxin reductase expression vector, 1 μg/P100 plate) together with 3 μg per plate of either pSG5 (control) or hP450RAI-pSG5 (experimental). [11,12-^3H]all-trans retinoic acid (60,000 cpm per plate) was added 24 hours after transfection. […] Total amounts of 4-oxo-RA and 4-OH-RA produced in the transfected cells in comparison to amounts produced in the control cells are shown in FIGS. 11(a) and (b), respectively. Overall, greater amounts of aqueous soluble metabolites were produced in the transfected cells (FIG. 11(c)) and greater amounts of unmetabolized RA were found in control cells (FIG. 11(d)).

hP450RAI mRNA = assay: Inducibility of hP450RAI mRNA by RA in human cell lines, northern blot; type: cell-based
Method: The clone sequence (SEQ ID NO:11) was prepared as a ^32[P]-dATP labeled probe to study the inducibility of hP450RAI by RA in several cell lines: HEK293; EL-E; HL-60; MCF10A; LC-T; SK-LC6; MCF7; U937; HepG2; NT2 (See FIGS. 5 to 7). […] The SK-LC6 human lung (epithelial) line appeared to constitutively express corresponding mRNA.
The ^32[P]-dATP labeled probe was also used to study hP450RAI mRNA expression in a human acute promyelocytic leukemia cell line. Experiments were carried out using the NB4 cell line, isolated from a human acute promyelocytic leukemia patient, and three retinoic acid resistant cell lines were independently derived from NB4.

SMILES | suppression of RA induction of P450RAI message ([1]; 1 μM RA in the presence of 10 μM 4-HPR) | induction of P450RAI message by 4-HPR treatment alone ([1]; 10 μM or 1 μM 4HPR alone) | effect on RA-induced RA catabolism (NB4 cells) | zP450RAI transcripts in regenerate tissue (zP450RAI transcripts) | luciferase activity (mP450RAI promoter) | conversion of RA into metabolites (hP450RAI) | hP450RAI mRNA expression in response to RA (hP450RAI mRNA; EL-E, HL-60 and MCF10A cell lines, 10^−6M RA) | hP450RAI mRNA expression in response to RA (hP450RAI mRNA; HEK293, LC-T, HepG2, NT2 and U937 cell lines, 10^−6M RA) | hP450RAI mRNA expression in response to RA (hP450RAI mRNA; MCF7 (human breast carcinoma) cell line, 10^−6M RA) | hP450RAI mRNA expression in response to RA (hP450RAI mRNA; normal NB4 cell line, 10^−6M RA) | hP450RAI mRNA expression in response to RA (hP450RAI mRNA; three retinoic acid resistant cell lines derived from NB4, 10^−6M RA)
CC1=C(/C=C/C(C)=C/C=C/C(C)=C/C(=O)Nc2ccc(O)cc2)C(C)(C)CCC1 [4-HPR, 4-hydroxyphenylretinamide] | noticeable suppression of P450RAI induction | does not induce the P450RAI message | inhibits RA-induced RA catabolism | – | – | – | – | – | – | – | –
CC1=C(/C=C/C(C)=C/C=C/C(C)=C/C(=O)O)C(C)(C)CCC1 [RA, all-trans retinoic acid] | – | – | – | very noticeably present | enhanced luciferase activity | promoted conversion of RA into 4-OH-RA and 4-oxo-RA | no expression in the absence or presence of RA | some increase in expression | large dependence on exposure to RA | expressed hP450RAI mRNA | expression appeared to be absent
